According to the supplement of paper PMC10037445:
Over roughly 2,900 compounds, “IRF Lucia reporter activity, fold change vs agonist alone” has its median near 0.9; the highest 2% begin near 2.8. The list shows a part of the results.

Columns and labels:
RAW-Dual [1] = test: IRF Lucia reporter activity, fold change vs agonist alone; cytotoxicity flag (confluency mask): not cytotoxic; higher = enhanced IRF activity
Summary of the method: (§1)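 Reporter activity is given as fold change relative to agonist-alone wells. To measure it, 50 nL of library stock was pin-tooled onto RAW-Dual macrophages (50,000 cells/well, DMEM, 384-well plates), a PRR agonist followed 1 h later, and cells stayed at 37 °C, 5% CO2. Twenty hours on, supernatant was assayed for IRF (QuantiLuc luminescence) and NF-κB (QuantiBlue, 620 nm absorbance), and wells under 70% of agonist-control IncuCyte confluency in both mask sets were marked cytotoxic.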

RAW-Dual [2] = test: IRF Lucia reporter activity, fold change vs agonist alone; higher = enhanced IRF activity; conditions: cytotoxicity flag (confluency mask): not cytotoxic, agonist: MPLA (TLR4) […]
Summary of the method: as §1

[3] = agonist: 3'3'-cGAMP (STING) 10 ug/mL
[4] = library stock concentration (final ~1000-fold dilution): 10 mM
[5] = library stock concentration (final ~1000-fold dilution): 2 mM

C=C1C(CO)C(O)CC1n1cnc2c(=O)nc(N)[nH]c21.O (stereo unspecified) (library stock concentration (final ~1000-fold dilution): 10 mM)
IRF Lucia reporter activity (RAW-Dual [1]; [3]): 0.941 | IRF Lucia reporter activity (RAW-Dual [1]; agonist: LPS (TLR4) 0.1 ug/mL): 1.24

C=C1C(CO)C(O)CC1n1cnc2c(=O)nc(N)[nH]c21.O (stereo unspecified)
IRF Lucia reporter activity (RAW-Dual [2]; [4]): 1.07

CNC(=O)c1cccc(-c2ccc3c(N4CCOCC4C)nc(N4CCOCC4C)nc3n2)c1 (stereo unspecified) (library stock concentration (final ~1000-fold dilution): 10 mM)
IRF Lucia reporter activity (RAW-Dual [1]; [3]): 0.435 | IRF Lucia reporter activity (RAW-Dual [1]; agonist: LPS (TLR4) 0.1 ug/mL): 0.742

CNC(=O)c1cccc(-c2ccc3c(N4CCOCC4C)nc(N4CCOCC4C)nc3n2)c1 (stereo unspecified)
IRF Lucia reporter activity (RAW-Dual [2]; [4]): 0.572

CC(C)=CCC[C@](C)(O)[C@H]1CC[C@]2(C)[C@@H]3CCC4C(C)(C)[C@@H](O)CC[C@]4(C)[C@H]3C[C@@H](O)[C@@]12C (stereo partly specified) (library stock concentration (final ~1000-fold dilution): 10 mM)
IRF Lucia reporter activity (RAW-Dual [1]; [3]): 0.885 | IRF Lucia reporter activity (RAW-Dual [1]; agonist: LPS (TLR4) 0.1 ug/mL): 1.4

N#Cc1c(Oc2ccc(F)c(NC(=O)Cc3cccc(C(F)(F)F)c3)c2)ccc2nc(NC(=O)C3CC3)sc12 (library stock concentration (final ~1000-fold dilution): 10 mM)
IRF Lucia reporter activity (RAW-Dual [1]; [3]): 0.838 | IRF Lucia reporter activity (RAW-Dual [1]; agonist: LPS (TLR4) 0.1 ug/mL): 0.681

N#Cc1c(Oc2ccc(F)c(NC(=O)Cc3cccc(C(F)(F)F)c3)c2)ccc2nc(NC(=O)C3CC3)sc12
IRF Lucia reporter activity (RAW-Dual [2]; [4]): 1

COC(=O)C1=COC(OC2OC(CO)C(O)C(O)C2O)C2C1CC(O)C2C (stereo unspecified) (library stock concentration (final ~1000-fold dilution): 10 mM)
IRF Lucia reporter activity (RAW-Dual [1]; [3]): 1.08 | IRF Lucia reporter activity (RAW-Dual [1]; agonist: LPS (TLR4) 0.1 ug/mL): 1.3

COC(=O)C1=COC(OC2OC(CO)C(O)C(O)C2O)C2C1CC(O)C2C (stereo unspecified)
IRF Lucia reporter activity (RAW-Dual [2]; [4]): 1.12

Cl.OC(CCN1CCCC1)(c1ccccc1)C1CCCCC1 (stereo unspecified) (library stock concentration (final ~1000-fold dilution): 10 mM)
IRF Lucia reporter activity (RAW-Dual [1]; [3]): 0.757 | IRF Lucia reporter activity (RAW-Dual [1]; agonist: LPS (TLR4) 0.1 ug/mL): 1.51

Cl.OC(CCN1CCCC1)(c1ccccc1)C1CCCCC1 (stereo unspecified)
IRF Lucia reporter activity (RAW-Dual [2]; [4]): 1.22

O=C1Nc2ccccc2C1=O
IRF Lucia reporter activity (RAW-Dual [2]; [4]): 1.01

O=C1Nc2ccccc2C1=O (library stock concentration (final ~1000-fold dilution): 10 mM)
IRF Lucia reporter activity (RAW-Dual [1]; [3]): 0.986 | IRF Lucia reporter activity (RAW-Dual [1]; agonist: LPS (TLR4) 0.1 ug/mL): 1.28

CN1C(C(=O)Nc2ccccn2)=C(O)c2sc(Cl)cc2S1(=O)=O (library stock concentration (final ~1000-fold dilution): 2 mM)
IRF Lucia reporter activity (RAW-Dual [1]; [3]): 0.996 | IRF Lucia reporter activity (RAW-Dual [1]; agonist: LPS (TLR4) 0.1 ug/mL): 1

CN1C(C(=O)Nc2ccccn2)=C(O)c2sc(Cl)cc2S1(=O)=O
IRF Lucia reporter activity (RAW-Dual [2]; [5]): 1.27

N#Cc1ncccn1
IRF Lucia reporter activity (RAW-Dual [2]; [5]): 1.07

N#Cc1ncccn1 (library stock concentration (final ~1000-fold dilution): 2 mM)
IRF Lucia reporter activity (RAW-Dual [1]; [3]): 0.907 | IRF Lucia reporter activity (RAW-Dual [1]; agonist: LPS (TLR4) 0.1 ug/mL): 0.936

C=C1CCC2C(C)(COC(=O)CCC(=O)O)C(OC(=O)CCC(=O)O)CCC2(C)C1C=CC1=CCOC1=O (stereo unspecified) (library stock concentration (final ~1000-fold dilution): 10 mM)
IRF Lucia reporter activity (RAW-Dual [1]; [3]): 1.07 | IRF Lucia reporter activity (RAW-Dual [1]; agonist: LPS (TLR4) 0.1 ug/mL): 1.12

C=C1CCC2C(C)(COC(=O)CCC(=O)O)C(OC(=O)CCC(=O)O)CCC2(C)C1C=CC1=CCOC1=O (stereo unspecified)
IRF Lucia reporter activity (RAW-Dual [2]; [4]): 1.07

CCOC(=O)C1=Cc2ccc(C(F)(F)C(F)(F)F)cc2N=C(N)C1 (library stock concentration (final ~1000-fold dilution): .1 mM)
IRF Lucia reporter activity (RAW-Dual [1]; [3]): 0.839 | IRF Lucia reporter activity (RAW-Dual [1]; agonist: LPS (TLR4) 0.1 ug/mL): 0.547

Cc1ccc(CNc2ncnc3ccc(-c4ccc(CO)o4)cc23)o1 (library stock concentration (final ~1000-fold dilution): 10 mM)
IRF Lucia reporter activity (RAW-Dual [1]; [3]): 0.504 | IRF Lucia reporter activity (RAW-Dual [1]; agonist: LPS (TLR4) 0.1 ug/mL): 0.761

Cc1ccc(CNc2ncnc3ccc(-c4ccc(CO)o4)cc23)o1
IRF Lucia reporter activity (RAW-Dual [2]; [4]): 0.892

COc1cc(OC)c(C(=O)CCCN2CCCC2)c(OC)c1.Cl (library stock concentration (final ~1000-fold dilution): 10 mM)
IRF Lucia reporter activity (RAW-Dual [1]; [3]): 1.01 | IRF Lucia reporter activity (RAW-Dual [1]; agonist: LPS (TLR4) 0.1 ug/mL): 0.894

COc1cc(OC)c(C(=O)CCCN2CCCC2)c(OC)c1.Cl
IRF Lucia reporter activity (RAW-Dual [2]; [4]): 1.01

O=C(Nc1ccc([N+](=O)[O-])cc1Cl)c1cc(Cl)ccc1O
IRF Lucia reporter activity (RAW-Dual [2]; [4]): 0.899

O=C(Nc1ccc([N+](=O)[O-])cc1Cl)c1cc(Cl)ccc1O (library stock concentration (final ~1000-fold dilution): 10 mM)
IRF Lucia reporter activity (RAW-Dual [1]; [3]): 0.354 | IRF Lucia reporter activity (RAW-Dual [1]; agonist: LPS (TLR4) 0.1 ug/mL): 2.53

O=C(Nc1cccnc1)N1CCC(Cc2cccc(Oc3ccc(C(F)(F)F)cn3)c2)CC1
IRF Lucia reporter activity (RAW-Dual [2]; [4]): 1.09

O=C(Nc1cccnc1)N1CCC(Cc2cccc(Oc3ccc(C(F)(F)F)cn3)c2)CC1 (library stock concentration (final ~1000-fold dilution): 10 mM)
IRF Lucia reporter activity (RAW-Dual [1]; [3]): 0.925 | IRF Lucia reporter activity (RAW-Dual [1]; agonist: LPS (TLR4) 0.1 ug/mL): 1.02

Cc1cc(C)nc(NS(=O)(=O)c2ccc(NC(=S)NC(=O)COc3ccc(Br)cc3Cl)cc2)n1 (library stock concentration (final ~1000-fold dilution): 10 mM)
IRF Lucia reporter activity (RAW-Dual [1]; [3]): 1.03 | IRF Lucia reporter activity (RAW-Dual [1]; agonist: LPS (TLR4) 0.1 ug/mL): 1.12

Cc1cc(C)nc(NS(=O)(=O)c2ccc(NC(=S)NC(=O)COc3ccc(Br)cc3Cl)cc2)n1
IRF Lucia reporter activity (RAW-Dual [2]; [4]): 1.29
